# According to the supplement of paper PMC8728848:
# The other results are listed elsewhere or left out.
# B1: Pwp4 (Candida glabrata) (protein)
# chain: MGSSHHHHHHSSGLVPRGSHMASVGNPITVSNVCSFPKNWHRTAGFRALTARLGIGIQSDSYKELLNYPGTFQLTTQQSSTTKPNFQISGLVGNIYGLTIVPSYLLVELTGYFVPPVSGEYTFSLEGSDDAAIIFIANPSTFKCGHVEDWPTAYDNDVTVTESIHATRTIYMIEGVAYPIRIAYYNGLSLGKLQASFTDPEGVKRVDWNGYIWRYDSCDTCSYV
# Tests used:
# Assay in all cases: glycan array binding signal (z-score within array); higher = stronger binding
# Settings in all cases: glycan notation: IUPAC condensed, linker removed
# [1] = biological target: GalNAc(b1-4)GlcNAc(b1-2)Man
# Procedure, shortened: (§1)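 The binding signal is a Z-score computed within each array. Data were drawn from 3228 arrays in the Consortium for Functional Glycomics database, restricted to those with a known protein sequence. Scores were averaged over arrays of the same protein sequence at different concentrations or buffers, and over linkers, and negative values can be taken as non-binding.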
# [2] = biological target: GalNAc(b1-4)GlcNAc(b1-2)Man(a1-3)[GalNAc(b1-4)GlcNAc(b1-2)Man(a1-6)]Man(b1-4)GlcNAc(b1-4)GlcNAc
# Procedure, shortened: as §1
# [3] = biological target: GalNAc(b1-4)GlcNAc(b1-3)GalNAc(b1-4)GlcNAc
# Procedure, shortened: as §1
# GalNAc(b1-4)GlcNAc6S = biological target: GalNAc(b1-4)GlcNAc6S
# Procedure, shortened: as §1
# GalNAc(b1-6)GalNAc = biological target: GalNAc(b1-6)GalNAc
# Procedure, shortened: as §1
# GalNAc3S(b1-4)GlcNAc = biological target: GalNAc3S(b1-4)GlcNAc
# Procedure, shortened: as §1
# GalNAc3S(b1-4)GlcNAc3S = biological target: GalNAc3S(b1-4)GlcNAc3S
# Procedure, shortened: as §1
# [4] = biological target: GalNAc3S(b1-4)[Fuc(a1-3)]GlcNAc
# Procedure, shortened: as §1
# GalNAc4S6S(b1-4)GlcNAc = biological target: GalNAc4S6S(b1-4)GlcNAc
# Procedure, shortened: as §1
# GalNAc6S(b1-4)GlcNAc = biological target: GalNAc6S(b1-4)GlcNAc
# Procedure, shortened: as §1
# Glc(a1-4)Glc = biological target: Glc(a1-4)Glc
# Procedure, shortened: as §1
# [5] = biological target: Glc(a1-4)Glc(a1-4)Glc(a1-4)Glc
# Procedure, shortened: as §1
# Glc(a1-6)Glc(a1-6)Glc = biological target: Glc(a1-6)Glc(a1-6)Glc
# Procedure, shortened: as §1
# [6] = biological target: Glc(a1-6)Glc(a1-6)Glc(a1-6)Glc
# Procedure, shortened: as §1
# Glc(b1-4)Glc = biological target: Glc(b1-4)Glc
# Procedure, shortened: as §1
# Glc(b1-6)Glc = biological target: Glc(b1-6)Glc
# Procedure, shortened: as §1
# GlcA(b1-3)Gal = biological target: GlcA(b1-3)Gal
# Procedure, shortened: as §1
# GlcA(b1-3)GlcNAc = biological target: GlcA(b1-3)GlcNAc
# Procedure, shortened: as §1
# GlcA(b1-6)Gal = biological target: GlcA(b1-6)Gal
# Procedure, shortened: as §1
# [7] = biological target: GlcA3S(b1-3)Gal(b1-4)GlcNAc(b1-2)Man
# Procedure, shortened: as §1
# [8] = biological target: GlcA3S(b1-3)Gal(b1-4)GlcNAc(b1-3)Gal(b1-4)Glc
# Procedure, shortened: as §1
# [9] = biological target: GlcNAc(a1-3)Gal(b1-4)GlcNAc
# Procedure, shortened: as §1
# [10] = biological target: GlcNAc(a1-4)Gal(b1-3)GlcNAc
# Procedure, shortened: as §1
# [11] = biological target: GlcNAc(a1-4)Gal(b1-4)GalNAc
# Procedure, shortened: as §1
# [12] = biological target: GlcNAc(a1-4)Gal(b1-4)GlcNAc
# Procedure, shortened: as §1
# [13] = biological target: GlcNAc(a1-4)Gal(b1-4)GlcNAc(b1-3)Gal(b1-4)Glc
# Procedure, shortened: as §1
# [14] = biological target: GlcNAc(a1-4)Gal(b1-4)GlcNAc(b1-3)Gal(b1-4)GlcNAc
# Procedure, shortened: as §1
# [15] = biological target: GlcNAc(a1-4)Gal(b1-4)GlcNAc(b1-3)Gal(b1-4)GlcNAc(b1-3)Gal(b1-4)GlcNAc
# Procedure, shortened: as §1
# [16] = biological target: GlcNAc(a1-4)Gal(b1-4)GlcNAc(b1-3)Gal(b1-4)[Fuc(a1-3)]GlcNAc(b1-3)Gal(b1-4)[Fuc(a1-3)]GlcNAc
# Procedure, shortened: as §1
# [17] = biological target: GlcNAc(a1-6)Gal(b1-4)GlcNAc
# Procedure, shortened: as §1
# [18] = biological target: GlcNAc(b1-2)Gal(b1-3)GalNAc
# Procedure, shortened: as §1
# [19] = biological target: GlcNAc(b1-2)Man(a1-3)[GlcNAc(b1-2)Man(a1-6)]Man(b1-4)GlcNAc(b1-4)GlcNAc
# Procedure, shortened: as §1
# [20] = biological target: GlcNAc(b1-2)Man(a1-3)[GlcNAc(b1-2)Man(a1-6)]Man(b1-4)GlcNAc(b1-4)[Fuc(a1-6)]GlcNAc
# Procedure, shortened: as §1
# [21] = biological target: GlcNAc(b1-2)Man(a1-3)[GlcNAc(b1-4)][GlcNAc(b1-2)Man(a1-6)]Man(b1-4)GlcNAc(b1-4)GlcNAc
# Procedure, shortened: as §1
# [22] = biological target: GlcNAc(b1-2)Man(a1-3)[GlcNAc(b1-4)][GlcNAc(b1-2)Man(a1-6)]Man(b1-4)GlcNAc(b1-4)[Fuc(a1-6)]GlcNAc
# Procedure, shortened: as §1
# [23] = biological target: GlcNAc(b1-2)[GlcNAc(b1-4)]Man(a1-3)[GlcNAc(b1-2)Man(a1-6)]Man(b1-4)GlcNAc(b1-4)GlcNAc
# Procedure, shortened: as §1
# [24] = biological target: GlcNAc(b1-2)[GlcNAc(b1-4)]Man(a1-3)[GlcNAc(b1-4)][GlcNAc(b1-2)Man(a1-6)]Man(b1-4)GlcNAc(b1-4)GlcNAc
# Procedure, shortened: as §1
# [25] = biological target: GlcNAc(b1-2)[GlcNAc(b1-4)]Man(a1-3)[GlcNAc(b1-4)][GlcNAc(b1-2)[GlcNAc(b1-6)]Man(a1-6)]Man(b1-4)GlcNAc(b1-4)GlcNAc
# Procedure, shortened: as §1
# [26] = biological target: GlcNAc(b1-2)[GlcNAc(b1-4)]Man(a1-3)[GlcNAc(b1-4)][GlcNAc(b1-2)[GlcNAc(b1-6)]Man(a1-6)]Man(b1-4)GlcNAc(b1-4)[Fuc(a1-6)]GlcNAc
# Procedure, shortened: as §1
# [27] = biological target: GlcNAc(b1-2)[GlcNAc(b1-6)]Man(a1-6)[GlcNAc(b1-2)Man(a1-3)]Man(b1-4)GlcNAc(b1-4)GlcNAc
# Procedure, shortened: as §1
# [28] = biological target: GlcNAc(b1-2)[GlcNAc(b1-6)]Man(a1-6)[GlcNAc(b1-2)Man(a1-3)]Man(b1-4)GlcNAc(b1-4)[Fuc(a1-6)]GlcNAc
# Procedure, shortened: as §1
# [29] = biological target: GlcNAc(b1-2)[GlcNAc(b1-6)]Man(a1-6)[GlcNAc(b1-4)][GlcNAc(b1-2)Man(a1-3)]Man(b1-4)GlcNAc(b1-4)GlcNAc
# Procedure, shortened: as §1
# GlcNAc(b1-3)Fuc = biological target: GlcNAc(b1-3)Fuc
# Procedure, shortened: as §1
# GlcNAc(b1-3)Gal = biological target: GlcNAc(b1-3)Gal
# Procedure, shortened: as §1
# [30] = biological target: GlcNAc(b1-3)Gal(b1-3)GalNAc
# Procedure, shortened: as §1
binder,measurement,setting,value
B1,glycan array binding signal (z-score),[1],-0.392
same,glycan array binding signal (z-score),[2],0.13
same,glycan array binding signal (z-score),[3],0.086
same,glycan array binding signal (z-score),GalNAc(b1-4)GlcNAc6S,-0.423
same,glycan array binding signal (z-score),GalNAc(b1-6)GalNAc,-0.402
same,glycan array binding signal (z-score),GalNAc3S(b1-4)GlcNAc,-0.515
same,glycan array binding signal (z-score),GalNAc3S(b1-4)GlcNAc3S,2.05
same,glycan array binding signal (z-score),[4],0.219
same,glycan array binding signal (z-score),GalNAc4S6S(b1-4)GlcNAc,2.02
same,glycan array binding signal (z-score),GalNAc6S(b1-4)GlcNAc,-0.377
same,glycan array binding signal (z-score),Glc(a1-4)Glc,-0.39
same,glycan array binding signal (z-score),[5],-0.384
same,glycan array binding signal (z-score),Glc(a1-6)Glc(a1-6)Glc,-1.11
same,glycan array binding signal (z-score),[6],-0.446
same,glycan array binding signal (z-score),Glc(b1-4)Glc,-0.434
same,glycan array binding signal (z-score),Glc(b1-6)Glc,-2.69
same,glycan array binding signal (z-score),GlcA(b1-3)Gal,0.623
same,glycan array binding signal (z-score),GlcA(b1-3)GlcNAc,-0.506
same,glycan array binding signal (z-score),GlcA(b1-6)Gal,-0.803
same,glycan array binding signal (z-score),[7],1.18
same,glycan array binding signal (z-score),[8],2.74
same,glycan array binding signal (z-score),[9],0.005
same,glycan array binding signal (z-score),[10],-0.698
same,glycan array binding signal (z-score),[11],-0.853
same,glycan array binding signal (z-score),[12],-0.021
same,glycan array binding signal (z-score),[13],1.52
same,glycan array binding signal (z-score),[14],0.102
same,glycan array binding signal (z-score),[15],-0.547
same,glycan array binding signal (z-score),[16],0.399
same,glycan array binding signal (z-score),[17],1.07
same,glycan array binding signal (z-score),[18],2.07
same,glycan array binding signal (z-score),[19],-0.379
same,glycan array binding signal (z-score),[20],-0.464
same,glycan array binding signal (z-score),[21],-0.42
same,glycan array binding signal (z-score),[22],-1
same,glycan array binding signal (z-score),[23],-0.085
same,glycan array binding signal (z-score),[24],0.18
same,glycan array binding signal (z-score),[25],-0.334
same,glycan array binding signal (z-score),[26],0.337
same,glycan array binding signal (z-score),[27],7.51
same,glycan array binding signal (z-score),[28],0.645
same,glycan array binding signal (z-score),[29],-0.459
same,glycan array binding signal (z-score),GlcNAc(b1-3)Fuc,-0.603
same,glycan array binding signal (z-score),GlcNAc(b1-3)Gal,-0.52
same,glycan array binding signal (z-score),[30],-0.481
